Screen size: about 310,000 compounds; about 14,000 (4.5%) showed an effect of 50% or more. The effect is printed as a negative number. The list shows a part of the results.
These molecules were tested against human ether-à-go-go-related gene (hERG) potassium channel (human, UniProt Q12809) (assay: primary screen, population patch clamp on CHO cells stably expressing hERG).
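Also: peak tail current of the secondary pulse compared with the same well before compound.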

human ether-à-go-go-related gene (hERG) potassium channel, sequence (Q12809 whole entry, looked up): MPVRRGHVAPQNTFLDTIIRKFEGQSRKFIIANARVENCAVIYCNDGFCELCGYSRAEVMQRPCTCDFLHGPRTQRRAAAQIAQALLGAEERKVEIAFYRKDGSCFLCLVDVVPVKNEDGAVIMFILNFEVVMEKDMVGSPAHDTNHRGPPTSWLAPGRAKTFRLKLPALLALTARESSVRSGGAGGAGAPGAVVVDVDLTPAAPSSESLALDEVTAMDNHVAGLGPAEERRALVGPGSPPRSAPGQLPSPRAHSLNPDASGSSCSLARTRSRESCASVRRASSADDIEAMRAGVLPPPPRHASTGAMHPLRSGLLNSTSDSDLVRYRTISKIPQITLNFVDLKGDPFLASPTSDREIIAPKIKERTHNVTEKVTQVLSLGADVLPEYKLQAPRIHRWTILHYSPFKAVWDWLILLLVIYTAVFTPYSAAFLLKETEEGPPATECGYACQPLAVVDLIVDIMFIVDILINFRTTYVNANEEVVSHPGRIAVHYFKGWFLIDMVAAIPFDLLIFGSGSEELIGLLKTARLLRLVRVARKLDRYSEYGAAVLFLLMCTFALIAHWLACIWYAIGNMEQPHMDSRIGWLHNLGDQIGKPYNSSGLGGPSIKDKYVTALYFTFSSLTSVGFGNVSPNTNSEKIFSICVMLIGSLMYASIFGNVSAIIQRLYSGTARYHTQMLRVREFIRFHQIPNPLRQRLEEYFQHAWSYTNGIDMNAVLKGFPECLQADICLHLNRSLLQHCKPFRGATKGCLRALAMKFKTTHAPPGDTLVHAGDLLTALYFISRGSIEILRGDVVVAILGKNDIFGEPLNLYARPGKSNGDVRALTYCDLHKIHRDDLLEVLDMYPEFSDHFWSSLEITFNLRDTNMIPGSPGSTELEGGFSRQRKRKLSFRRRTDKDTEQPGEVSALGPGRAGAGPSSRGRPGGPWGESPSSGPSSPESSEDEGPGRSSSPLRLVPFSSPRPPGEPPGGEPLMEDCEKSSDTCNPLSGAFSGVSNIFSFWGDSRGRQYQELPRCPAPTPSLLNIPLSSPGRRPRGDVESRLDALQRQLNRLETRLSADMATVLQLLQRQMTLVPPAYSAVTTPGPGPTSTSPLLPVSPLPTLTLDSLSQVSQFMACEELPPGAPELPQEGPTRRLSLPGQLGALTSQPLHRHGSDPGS

SMILES | hERG current change (%, negative = inhibition) at 10uM
O=C1NC2=C(CCc3ccccc32)C(c2ccccc2)N1 (stereo not drawn) | -20.8%
CC(=O)c1ccc(N2CCN(C(C)C(=O)NC3CCCc4ccccc43)CC2)cc1 (stereo not drawn) | -44.2%
CNC(=O)Nc1ccc(Cl)cc1 | 7.56%
Nc1nc(CN2CCCCCC2)nc(Nc2ccccc2)n1 | -61.4%
Cc1ccccc1OCC(=O)NCCN1CCCC1.Cl | -3.02%
Cc1cc(NC(=O)CSc2nnc(C)o2)no1 | 11.8%
Cc1cccc(C(C)(C)C)c1OCCn1ccnc1 | -11.1%
O=C(/C=C/c1ccco1)Oc1cccc2cccnc12 | 9.02%
C=CCn1c(O)c(C(C)=NC2CC2)c(=O)[nH]c1=O | 9.27%
CC(=O)c1cc2cc(O)ccc2o1 | 5.74%
Nc1c(N(Cc2ccco2)C(=O)c2cccc(Cl)c2)c(=O)[nH]c(=O)n1Cc1ccccc1 | 5.99%
COc1ccc(Cc2nnc(NS(=O)(=O)c3ccc([N+](=O)[O-])cc3)s2)cc1 | -0.0408%
COC(=O)c1cccc(NC(=O)Cc2ccccc2[N+](=O)[O-])c1C | -5.62%
COc1ccc(C2NC(=O)C(C#N)=C(S)N2c2ccc(C)cc2)cc1OC (stereo not drawn) | 18.2%
O=C(Nc1ncccn1)C1CCCN1S(=O)(=O)c1ccc(Cl)c(Cl)c1 (stereo not drawn) | -0.452%
O=C(Cc1ccccc1)N1CCN(Cc2ccc([N+](=O)[O-])cc2)CC1 | -63.4%
CC(C(=O)OCC(=O)c1ccc([N+](=O)[O-])cc1)N1C(=O)C2C3C=CC(C3)C2C1=O (stereo not drawn) | -43%
CC(=O)Nc1nc(C=C(Cl)Cl)cs1 | -7.74%
CN1CCN(S(=O)(=O)c2ccc(N3CCN(C(=O)c4ccccc4)CC3)nc2)CC1 | 36.5%
COc1ccc(CCNS(=O)(=O)c2ccc([N+](=O)[O-])cc2)cc1OC | -2.39%
CCC(C(=O)NCc1ccc(F)cc1)N(CCc1ccccc1)C(=O)c1snc(C(N)=O)c1N (stereo not drawn) | -40.7%
O=C(O)/C=C/C(=O)Nc1ccc(S(=O)(=O)Nc2nccs2)cc1 | 7.54%
Cc1ccc(C)c(OCCCCCn2ccnc2)c1 | -36.4%

SMILES | hERG current change (%, negative = inhibition) at 10uM
CCOC(=O)c1c(NC(=O)c2cccs2)sc2c1CCCC2 | 15.6%
Cn1c2ccccc2c2c(C(=O)NCC3CCCO3)cn(C3CCCC3)c(=O)c21 (stereo not drawn) | -0.664%
CCOC(=O)N1CCC(NC(=O)c2cc(S(=O)(=O)NCCc3ccccc3)ccc2F)CC1 | -36%
O=C(NN1CCOCC1)c1sc2cccc(F)c2c1Cl | 9.93%
CCC(=O)c1ccc(OCC(=O)OCC(=O)NC2CCCCCCC2)cc1 | 23.9%
CC(=O)c1cccc(NC(=O)COC(=O)c2ccccn2)c1 | 5.33%
COc1ccc(CN2CCN(c3ccccn3)CC2)cc1OCc1ccccc1 | -67.9%
COCCNC(=O)CN(C(=O)CCC(=O)Nc1ccccn1)c1ccc(C)cc1C | -0.279%
OC1(c2cccnc2)CC2CCC(C1)N2Cc1nnnn1Cc1ccccc1 (stereo not drawn) | -8.96%
CC1CC(C)CN(C(=O)COC(=O)c2ccc3c(c2)C(=O)N(Cc2ccco2)C3=O)C1 (stereo not drawn) | -68.7%
COC(=O)C(C)(C)ONC(=O)Nc1ccc(C)cc1 | -13.8%
CCC(=O)c1ccc(OCC(=O)O)c(OC)c1 | 9.77%
CC1=C(CCN2CCN(C(C)C)C(CCO)C2)C(C)(C)CCC1 (stereo not drawn) | -17.3%
CN(CC(=O)Nc1ccc(F)cc1)C(=O)COC(=O)C1CCN(c2ccc(C(F)(F)F)cn2)CC1 | -65.5%
COCCNc1nc2ccccc2nc1NS(=O)(=O)c1ccc(C)cc1C | -0.713%
CCCc1cc(C(=O)Nc2ccc(C)cc2)no1 | -13.8%
COc1ccc(C2CC(=O)NC(=O)C2)cc1 | 18.3%
CCN=C1SC(C(=O)NCCc2ccccc2)CC(=O)N1CC (stereo not drawn) | 6.74%
CCOC(=O)c1cccc(NC(=O)Nc2cc(OC)ccc2OC)c1 | -14.3%
O=C1CC2(CCCCC2)Oc2ccccc21 | 14.4%
O=C(NC1CCCC1)C1CCN(C(=O)c2cc(Cl)ccc2Cl)CC1 | -6.2%
Clc1ccc(-c2csc(Nc3cccnc3)n2)cc1 | 13.5%
COc1ccc(OC)c(C2C3=C(CCCC3=O)Nc3nnnn32)c1 (stereo not drawn) | 2.21%

SMILES | hERG current change (%, negative = inhibition) at 10uM
COC(=O)c1ccc(C2=NOC(C)(c3nnc(-c4cccc(Cl)c4)o3)C2)cc1 (stereo not drawn) | 10.9%
O=C(c1ccc2c(c1)N(Cc1cccc(Cl)c1)C(=O)c1ccccc1S2(=O)=O)N1CCN(c2ccccn2)CC1 | 7.1%
CCn1c(O)c(C=NCCN2CCOCC2)c(=O)n(CC)c1=S | -3.21%
COc1ccc(C2NC(=O)N(C)C3=C2C(=O)CC(C)(C)C3)cc1OC (stereo not drawn) | 15.1%
COC(=O)c1ccc(NC(=O)CSc2nccn2CCc2ccccc2)cc1 | 8.75%
CCc1cc(C(=O)N/N=C/c2c(C)[nH]c3ccccc23)cs1 | -6.65%
CCN(CC)c1ccc(NC(=O)c2ccc(Br)o2)cc1 | -24.3%
CN1CCN(S(=O)(=O)c2ccc(Cl)cc2)CC1 | 9.96%
COc1ccc(NC(=S)N(Cc2ccc(Cl)cc2)Cc2ccc(C(=O)O)cc2)cc1Cl | -3.51%
Cc1cc(=S)[nH]c2ccccc12 | 16.5%
CC(C)Sc1nnc([C@H](Cc2c[nH]c3ccccc23)NC(=O)OC(C)(C)C)o1 | -22.4%
CN(C)C(CNC(=O)CCOc1ccccc1)c1ccco1 (stereo not drawn) | 7.28%
CCOc1ccc(S(=O)(=O)NCCC(=O)OCC(=O)Nc2cc(C)on2)cc1 | -44.1%
Cc1ccccc1NC(=O)Cn1nnc(S(=O)(=O)c2ccc(C(C)(C)C)cc2)c1N | 4.35%
Cc1ccc(NC(=O)CCCN2C(=O)NC(C)(C)C2=O)cc1 | 12.5%
CSCCC(NC(=O)c1ccc(Cl)cc1Cl)C(=O)NCc1ccncc1 (stereo not drawn) | -25.3%
COc1ccc(S(=O)(=O)N(C)c2ccc(C(=O)N3CCCCC3)cc2)cc1 | -16.3%
Cc1cc(N2Cc3ccccc3C2)ccc1C=O | 4.57%
CCOc1cc(/C=N/NC(=O)c2ccc(N(C)S(=O)(=O)c3ccccc3)cc2)ccc1OC | -33%
Nc1ccc(/C=C/c2ccc3ncccc3c2)cc1 | 27.5%
CCCOc1ccc(/C(O)=C2/C(=O)C(=O)N(CCCOC)C2c2cccnc2)cc1 (stereo not drawn) | -5.91%
CSc1nc(O)c(/C=C2\C=Nc3ccccc32)[nH]1 | 9.12%
COCCCN=Cc1c(-c2ccccc2)[nH]n(-c2nc3ccccc3s2)c1=O | -75.1%

SMILES | hERG current change (%, negative = inhibition) at 10uM
O=C(Nc1ccccc1N1CCCC1)c1ccc([N+](=O)[O-])o1 | 5.51%
COc1ccc(OCCN2CCN(C(=O)c3ccc(OC)cc3)CC2)cc1 | -87.2%
CCCC(=O)Nc1cccc2c1CCCC2 | 10.2%
Cc1ccc(S(=O)(=O)N(CC(=O)NCCSc2ccccn2)c2ccc(C)c(C)c2)cc1 | -22.4%
CC(=O)c1cccc(NS(=O)(=O)c2ccc(-c3cnc(C4CC4)o3)cc2)c1 | -0.86%
COc1ccccc1C(=O)NC(=S)Nc1ccc(NC(=O)c2cccs2)cc1 | -4.54%
CN(C)CCSC1c2ccccc2CSc2ccccc21.Cl (stereo not drawn) | -14.2%
Cc1ccc2ncnc(NCCCCCC(=O)O)c2c1.Cl | 17.4%
COc1ccc2[nH]c(C(=O)N(C)Cc3ccccc3)c(C)c2c1 | 2.51%
O=C(C(=O)N1CCOCC1)c1cn(CCOc2ccccc2)c2ccccc12 | -18.4%
O=C(NCc1ccccn1)c1ccc2nc(-c3ccco3)c(-c3ccco3)nc2c1 | -16.3%
Cc1cc(C)c2cc(CN(CCCN(C)C)C(=S)NCc3ccccc3)c(=O)[nH]c2c1 | -45.4%
Cc1ccsc1-c1cc(C(=O)O)c2c(ccc3ccccc32)n1 | 12%
COc1cccc(-n2nnc3c(=O)n(Cc4ccccc4F)cnc32)c1 | 4.44%
CCC(=S)/C=C1\Sc2ccc3ccccc3c2N1CCCS(=O)(=O)[O-].[Na+] | 14.6%
CC1(C)CCCC2=C1CC1C(=O)N(Cc3cccnc3)C(=O)C1C2 (stereo not drawn) | -5.71%
Cc1cc(=O)n2nc(N3CCC(C(=O)NCc4ccco4)CC3)sc2n1 | 17.9%
COc1cccc2sc(NNC(=O)COc3ccccc3)nc12 | 14.7%
Cc1oc2ccc(OC(=O)COc3c(F)c(F)c(F)c(F)c3F)cc2c1C(=O)OC(C)C | 14.5%
Cc1cccc(-n2c(-c3ccco3)nc3ccccc3c2=O)c1C | -1.87%
COc1ccc(CCNC(=O)c2[nH]c(C)c(C(C)=O)c2C)cc1OC | 0.0336%
